This is one part of the list. At the low end of the ranking the order means little.
Molecular target: T1, GST-Rok (full length) (UniProt O34857)
T1 sequence: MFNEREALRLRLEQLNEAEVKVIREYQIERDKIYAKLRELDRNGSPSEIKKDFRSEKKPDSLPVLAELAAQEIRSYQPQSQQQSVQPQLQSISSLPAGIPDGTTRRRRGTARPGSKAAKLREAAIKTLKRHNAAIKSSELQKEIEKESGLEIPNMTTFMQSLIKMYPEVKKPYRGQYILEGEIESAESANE
Experiment: protein binding microarray;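 further: rank score from −0.5 (least bound) to 0.5 (best bound)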
Details: Rok is a gene silencer of Bacillus subtilis; high values mean tight binding; most listed sequences are background and not binding sites; double strand, one strand shown

Sequence	binding signal [E-score]
AGAACGGC	0.077
ATCATAAA	0.212
CAATGCGA	-0.136
AAGTATCA	0.259
ATTTTCCG	0.302
GCTTCTCA	-0.163
ATTTCAGC	0.0741
CCGACTTA	0.0559
CCTGCAAG	-0.297
AATCGGGG	-0.22
ACACGCGG	-0.245
CGGATAAG	-0.0988
GCAAGTAC	0.205
CATAATTC	0.126
AGTTTGAC	-0.0534
ACACAAAT	0.209
ACTTACCA	0.263
GTCCGTGA	-0.308
CATCCTGA	-0.235
ACCACCTG	-0.108
CAAGCATG	-0.12
AGCCCGTG	-0.00226
CCAACTGC	-0.00979
CACTTTGC	-0.14
AGGTGGCA	-0.138

Sequence	binding signal [E-score]
AGCAGCCA	-0.218
ACTTTAGG	-0.0321
AGATTTGG	0.223
AGGGATAC	-0.132
ACCCGATG	-0.239
CCTGTGTA	-0.0358
CCCGAAAC	-0.0746
CGAGCACG	-0.296
AAACGTAA	0.221
CCCCTAGC	-0.374
ATTCTGTA	0.21
AGCGACAG	-0.152
TTCTGCAA	0.0273
CTACCTCA	0.242
AAGACCGT	-0.15
CACCAGAC	-0.164
CGCCAGGA	-0.2
TCCAGGGA	-0.274
GTGAAAAC	0.132
ACCGTTAA	0.183
GACTATGC	-0.202
AAAATACG	0.303
ACTCGCTC	-0.0674
ATTAGAGA	0.0714
CGCAAGAC	-0.0406

Sequence	binding signal [E-score]
CGCGATGA	0.0767
CAACTCTG	-0.0271
AACTATCG	0.316
AAGATAAC	0.0492
CTTGGCTA	-0.0112
CATATGAG	0.0142
GCACCAAA	-0.0986
AACACGTT	-0.0392
GGAGGGTA	-0.234
GGACCCGA	-0.32
ATGGTTCG	-0.135
CTGCTAGC	-0.111
ACCAGCAA	0.0448
AAGCCATG	-0.192
TAGACCTA	0.0651
GACTGGCA	-0.123
AGAGTTTG	0.112
AATAGCAC	0.071
CCGTCTGC	-0.242
AGATTCAG	0.0353
GCCCCAAC	-0.25
GGAGTACA	-0.0203
CATTGAAG	0.107
GACGGTAC	-0.0776
CACAGAAG	0.117

Sequence	binding signal [E-score]
AAGCATCG	0.00495
CAGCACGA	-0.115
CTAGAGAG	-0.342
GGAGGCCC	-0.372
ACGGTAGG	0.137
GATGGGGC	-0.255
GGATAGCC	-0.165
GGTATTGA	0.0438
CCAGAAGC	-0.122
CCTAAACG	-0.104
GATATAAC	0.293
CCTTCCAA	-0.213
CGCCTGCA	-0.254
CGCTTTTC	0.046
ATGGTTTA	0.205
AACAGGGA	-0.18
CACCGTAA	0.0521
ACATTTCA	0.146
CGGGGCAG	-0.383
CAGGCTAC	0.00117
GAGCCTGA	-0.264
AGGCACGC	-0.285
CACCGTCG	-0.29
GACGAGTA	0.0347
AGGTTGAT	-0.0391

Sequence	binding signal [E-score]
CGTCCGCA	-0.223
GATCGACC	0.156
GATACCCA	0.0218
GCGTTGTA	0.0833
CCGATGAG	-0.123
ACTCCACT	-0.0107
GTGGTGCA	-0.0785
ACTTATCT	0.251
AGACCTCA	-0.243
ACGGATCC	-0.0665
GGTGCCAA	-0.118
GAGCACCC	-0.186
GCCACTAA	-0.0623
GCGTGTAA	0.0414
AGTCCCAA	-0.145
AGGTATGG	-0.0734
CCTCTGAC	-0.143
CACGCCCG	-0.312
GGGAAGAC	-0.284
AAGGTTCA	-0.0838
CAGTCACC	-0.156
AAGACGTG	-0.092
ACGGTCCA	-0.0889
ATGCGAAA	0.165
GCCATGAC	-0.165

Sequence	binding signal [E-score]
TATGCTAA	0.229
AATTCCAG	0.13
AATGGCGC	-0.0113
AAGCAGAA	0.142
AATCTCCA	0.12
CGCATCAA	0.0185
AAAGTCCT	-0.139
CCCTAATA	-0.151
ACATACAA	0.312
AGGCAGCG	-0.0852
ATATGCGC	0.256
CGCTTCCC	-0.243
ACCCCAAA	-0.151
TTCACGAA	-0.0124
CCTCTTAA	-0.235
AGTAAACA	0.0694
CAAGTGTC	-0.0185
CCGGTACC	-0.0284
ATCCAGTG	-0.172
CGTTTCAA	-0.0365
AAAATTGC	0.228
AACAAGCG	-0.0304
CCTTTTCA	-0.222
TCACGTAA	0.0949
ACCCGAAT	-0.0449

Sequence	binding signal [E-score]
CAGATCTG	0.0192
CCACGTCG	-0.199
AGATAAGG	0.0533
TACGTAAA	0.208
CTGGTTAC	0.117
CACACCTC	-0.0439
ATCGTCCG	-0.0152
TATTCCAA	0.23
GGTAACGA	0.0762
GTTGAGAA	0.0912
CGTTAGGC	-0.211
CATTATCA	0.323
CCGTCGAC	-0.217
ACCCGCTG	-0.265
CTTTTTTA	-0.116
GAACGTAC	0.122
TAATGTCA	0.17
CAAGGCGA	-0.302
ATGTGCCC	0.0198
GGGTTACA	-0.0277
TAGCGTGA	0.12
CCGTTGCG	-0.168
AGTTCTCG	0.0719
CTCCCAAG	-0.39
AGCAGGCG	-0.199

Sequence	binding signal [E-score]
CGCAGGCG	-0.345
ATATTGAA	0.246
TGAGTCAA	-0.0233
CGGGCCCC	-0.461
CAACGTAA	0.045
ATGTCTGA	-4.21e-05
AGAGTACT	0.165
CGGACCCC	-0.414
CCGGCAAG	-0.144
CAGGCAAC	0.0224
GTAAGGCA	-0.0457
CGTAAAAA	0.0957
CTTAGCCC	-0.215
ACGCGACA	-0.0894
GACACGTC	-0.127
AGGCTAGC	-0.0469
ACGATCGA	0.197
CCTAGGAC	-0.0373
CATATGAA	0.0706
AGAGAAGA	0.0708
ACAAGAAC	0.0914
ACCCACGT	-0.101
ATGAGCAT	-0.176
GCTGCGTA	-0.0538
CGAGTGAA	-0.0229

Sequence	binding signal [E-score]
ACATATTA	0.345
ATTCTCTC	-0.119
AGGAAGCC	-0.192
ATTCGGAA	0.235
CCGCCACC	-0.305
ATCCTTAA	0.0302
CCACGAAA	-0.0137
CACAAGTC	-0.214
GAACTCAC	0.0902
ATCTGTGA	-0.12
CCTGTGCG	-0.299
AAGAGCGT	-0.0692
AGGCCAAC	-0.0771
AATTGGAG	0.152
CCTAAATA	0.288
AGCCTTCA	-0.227
GTAATGAA	-0.0724
GGTCAGCA	-0.194
ACACGCAG	-0.3

From publication PMC6212790
